Source: PubChem BioAssay AID1645887 (National Center for Advancing Translational Sciences (NCATS), 2021)
Screen size: about 16,000 compounds; about 40 (0.2%) were called active. Not shown: some 1% with an inconclusive outcome. The call rests on the fitted dose curve; in most records, active means well fitted activation curve with a large enough effect; inconclusive means small, poorly fitted or top-dose-only effect, or another doubt; inactive means no such curve, though single readings can be large or run the other way. Some of the results follow.

Target: Rap guanine nucleotide exchange factor 4 (Homo sapiens) (UniProt Q8WZA2)
Assay: Validation qHTS for agonist of cAMP-regulated guanine nucleotide exchange factor 4 (EPAC2);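 further: exchange makes BODIPY-GDP fluorescence drop when released from Rap1B; series mostly up to about 150 µM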
Details: EPAC2 Rap1B BODIPY-GDP exchange, fluorescence; activation: active compounds read high
Method in brief: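 Fluorescent exchange assay: 100 nM EPAC2 with 250 nM RAP1B-BODIPY-GDP and 50 uM GDP; compound added, 5 min at room temperature, then read (ex 480/em 540 nm) every 5 min for 30 min. Normalized to 6.5 mM cAMP agonist control.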
On the % scale 0 is the no-effect control and ±100 the full control effect.

UniProt Q8WZA2, sequence (Q8WZA2 whole entry, looked up): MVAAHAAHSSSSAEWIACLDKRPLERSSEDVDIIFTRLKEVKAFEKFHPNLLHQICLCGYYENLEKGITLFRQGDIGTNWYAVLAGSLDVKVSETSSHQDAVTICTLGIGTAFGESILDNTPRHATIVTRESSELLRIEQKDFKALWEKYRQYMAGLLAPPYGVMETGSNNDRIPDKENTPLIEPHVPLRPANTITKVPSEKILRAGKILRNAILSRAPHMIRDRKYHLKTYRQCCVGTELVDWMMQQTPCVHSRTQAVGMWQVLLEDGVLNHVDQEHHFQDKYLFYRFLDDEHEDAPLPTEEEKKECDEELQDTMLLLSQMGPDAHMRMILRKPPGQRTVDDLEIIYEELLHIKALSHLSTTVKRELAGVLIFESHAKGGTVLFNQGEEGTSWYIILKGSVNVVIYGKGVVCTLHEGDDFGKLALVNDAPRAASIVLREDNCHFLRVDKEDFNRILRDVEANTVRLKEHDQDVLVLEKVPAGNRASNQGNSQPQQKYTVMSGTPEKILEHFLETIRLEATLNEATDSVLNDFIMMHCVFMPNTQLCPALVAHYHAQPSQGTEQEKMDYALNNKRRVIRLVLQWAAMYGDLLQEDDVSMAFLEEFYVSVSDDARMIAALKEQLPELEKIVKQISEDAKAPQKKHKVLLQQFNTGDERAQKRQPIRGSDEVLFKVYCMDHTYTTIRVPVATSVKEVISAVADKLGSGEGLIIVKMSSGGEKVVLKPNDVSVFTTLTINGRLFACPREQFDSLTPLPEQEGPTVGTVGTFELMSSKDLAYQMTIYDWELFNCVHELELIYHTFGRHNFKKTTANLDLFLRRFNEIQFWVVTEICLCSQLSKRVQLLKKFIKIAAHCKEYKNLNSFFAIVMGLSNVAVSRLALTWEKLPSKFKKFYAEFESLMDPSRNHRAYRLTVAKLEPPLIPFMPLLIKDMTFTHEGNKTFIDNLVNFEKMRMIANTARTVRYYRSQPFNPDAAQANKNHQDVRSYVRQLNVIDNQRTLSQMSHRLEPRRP

activation, inactive:
Cc1cc2c(c(-c3cnccn3)c1)OC(CNC(=O)c1cc(Cl)ccc1F)C2 (stereo not given) 5.25%
Cc1ncc2c(c1CNS(=O)(=O)c1cccs1)CCN(C(=O)/C=C/c1ccc(F)cc1F)C2 -0.522%
Cc1cc(C(=O)NCc2nnc3n2CCN(Cc2ccc(C)c(C)c2)CC3)c(C)o1 -7.7%
CC(=O)c1ccccc1C(=O)NCC1Cc2cccc(-c3cccnc3)c2O1 (stereo not given) -2.38%
O=C(c1cncs1)N(Cc1cc2cc3c(cc2nc1N1CCOCC1)CCC3)CC1CCCO1 (stereo not given) 3.37%
COc1ccc(C(=O)NCc2ccc(OCCN(C)C)cc2)cc1OC -14.5%
O=C(Nc1ncc([N+](=O)[O-])s1)c1cccs1 -35.8%
Cc1ccccc1C1(CC(=O)N2CCCC(C)C2)CC(=O)N(Cc2cccnc2)C1=O (stereo not given) -4.54%
N#Cc1ccccc1-c1ccc2ncnc(N3CCNCC3)c2c1 0.382%
O=C(O)c1cccc(/C=C2/C[C@@H]3[C@@H](/C=C/[C@@H](O)C4CCCCC4)[C@H](O)C[C@@H]3O2)c1 15.9%
C=CC[C@H](N)C(=O)O -20.3%
Brc1ccc([C@H]2CN3CCSC3=N2)cc1 -10.4%
CC(C)NC(=O)N1CCC2(CC1)CCN(C(=O)c1cnccn1)CC2 -2.54%
C[C@@H]1[C@H](c2ccccc2)OCCS(=O)(=O)N1Cc1ccccc1Br -14.3%
CSc1nccc(-c2cc(Cl)c3c(c2)CC(CNC(=O)c2nonc2C)O3)n1 (stereo not given) -3.78%
CCc1nnc(NS(=O)(=O)c2ccc(N)cc2)s1 -6.74%
CCNc1ncc2nc(-c3cn(C)c4ccccc34)c(=O)n(C[C@H]3CCCO3)c2n1 -9.01%
O=c1cnc2cnc(Oc3cccc(Cl)c3)nc2n1C1CC1 -19.8%
Nc1ncnc(Nc2ccc(Cl)cc2)n1 -15.2%
N=c1ccn2c(n1)O[C@@H]1[C@H](O)[C@H](CO)O[C@@H]12 1.16%
COc1c(O)cc2c(-c3ccccc3)cc(=O)oc2c1OC -3.44%
COc1cccc(CNC(=O)c2c(OC)cc(=O)n3c2CCN(C(=O)c2ccc(C)cc2C)CC3)c1 -3.66%
CCCCCCCCCCC1=C(C)C(=O)C(OC)=C(OC)C1=O -3.86%
COc1ccc(-c2coc3cc(OC4OC(CO)C(O)C(O)C4O)cc(O)c3c2=O)cc1 (stereo not given) -6.61%
COc1cc2c(cc1OC)[C@H](C)N(CC1C(=O)O[C@@H]3C[C@@]4(C)CCC[C@H](C)[C@@]45OC5[C@H]13)CC2 (stereo not given in full) 5.77%
